Laboratory results from the CheMixHub viscosity set.
Where “and” joins values, the source holds several entries; their conditions need not be identical. Identical values can stand only once. This continues a long series; more values of the same kind are listed elsewhere.

Legend:
[1] = xn = mol fraction of the nth substance listed

CCO
Conditions	viscosity
293.15 K, 101.33 kPa	1 mPa·s
294 K, 101 kPa	1.214 mPa·s
298.15 K, 101.33 kPa	1.007 mPa·s
303 K, 101 kPa	0.983 mPa·s
303.15 K, 100 kPa	0.975 mPa·s and 0.9905 mPa·s and 0.988 mPa·s
303.15 K, 101.3 kPa	0.9892 mPa·s
303.16 K, 101.33 kPa	0.9933 mPa·s
303.2 K, 101.33 kPa	0.974 mPa·s
308 K, 101.33 kPa	0.95 mPa·s
308.15 K, 100 kPa	0.93 mPa·s and 0.9318 mPa·s and 0.9 mPa·s
308.15 K, 101.3 kPa	0.893 mPa·s and 0.893 mPa·s
308.15 K, 101.31 kPa	0.9 mPa·s
311 K, 101.3 kPa	0.8481 mPa·s
311.79 K, 100 kPa	0.87 mPa·s
312.09 K, 100 kPa	0.87 mPa·s
312.39 K, 100 kPa	0.86 mPa·s
313 K, 101.33 kPa	0.8352 mPa·s and 0.89 mPa·s
313.15 K, 100 kPa	0.815 mPa·s and 0.83 mPa·s
313.15 K, 101.2 kPa	0.8591 mPa·s
313.15 K, 101.3 kPa	0.814 mPa·s and 0.83 mPa·s
313.18 K, 101.33 kPa	0.8305 mPa·s
313.61 K, 100 kPa	0.85 mPa·s
313.91 K, 100 kPa	0.84 mPa·s
314.21 K, 100 kPa	0.84 mPa·s
314.52 K, 100 kPa	0.83 mPa·s
314.82 K, 100 kPa	0.83 mPa·s
315.12 K, 100 kPa	0.82 mPa·s
315.42 K, 100 kPa	0.82 mPa·s
315.73 K, 100 kPa	0.81 mPa·s
316.03 K, 100 kPa	0.81 mPa·s
316.33 K, 100 kPa	0.8 mPa·s
316.64 K, 100 kPa	0.8 mPa·s
316.94 K, 100 kPa	0.8 mPa·s
317.24 K, 100 kPa	0.79 mPa·s
317.55 K, 100 kPa	0.79 mPa·s
317.85 K, 100 kPa	0.78 mPa·s
318.15 K, 101.3 kPa	0.72 mPa·s and 0.72 mPa·s
318.15 K, 101.33 kPa	0.757 mPa·s and 0.768 mPa·s
318.76 K, 100 kPa	0.77 mPa·s
319 K, 101.3 kPa	0.7348 mPa·s
319.06 K, 100 kPa	0.77 mPa·s
319.36 K, 100 kPa	0.76 mPa·s
319.67 K, 100 kPa	0.76 mPa·s
319.97 K, 100 kPa	0.75 mPa·s
320.27 K, 100 kPa	0.75 mPa·s
320.58 K, 100 kPa	0.74 mPa·s
320.88 K, 100 kPa	0.74 mPa·s
321.79 K, 100 kPa	0.73 mPa·s
322.09 K, 100 kPa	0.72 mPa·s
322.39 K, 100 kPa	0.72 mPa·s
323 K, 101.33 kPa	0.6995 mPa·s
323.15 K, 100 kPa	0.7055 mPa·s
323.15 K, 101.3 kPa	0.615 mPa·s
323.15 K, 101.33 kPa	0.7016 mPa·s

CS(C)=O + CC#N
[1]
Conditions	viscosity [mPa·s]
298.15 K, 101 kPa, x2 = 0.9771	0.3517
303.15 K, 101 kPa, x2 = 0.9771	0.3363
303.15 K, 101.33 kPa, x2 = 0.0948	1.554
303.15 K, 101.33 kPa, x2 = 0.2036	1.308
303.15 K, 101.33 kPa, x2 = 0.2949	1.124
303.15 K, 101.33 kPa, x2 = 0.4	0.9332
303.15 K, 101.33 kPa, x2 = 0.4976	0.7778
303.15 K, 101.33 kPa, x2 = 0.5977	0.6451
303.15 K, 101.33 kPa, x2 = 0.6957	0.5361
303.15 K, 101.33 kPa, x2 = 0.7957	0.4469
303.15 K, 101.33 kPa, x2 = 0.8967	0.3757
308.15 K, 101 kPa, x2 = 0.9771	0.3194
313.15 K, 101 kPa, x2 = 0.9502	0.3119
313.15 K, 101 kPa, x2 = 0.9771	0.305
318.15 K, 101 kPa, x2 = 0.9502	0.2967
318.15 K, 101 kPa, x2 = 0.9771	0.2927

CCCCN(CCCC)CCCC + CCCO
[1], 313.15 K, 101.3 kPa
Conditions	viscosity [mPa·s]
x1 = 0.5176	1.203
x1 = 0.616	1.153
x1 = 0.7064	1.12
x1 = 0.8055	1.081
x1 = 0.8864	1.046

CS(C)=O + OCCO
[1], 323.15 K, 101 kPa
Conditions	viscosity [mPa·s]
x2 = 0.3504	3.57
x2 = 0.404	3.94
x2 = 0.4562	4.32
x2 = 0.5076	4.64
x2 = 0.5568	4.92
x2 = 0.6061	5.19
x2 = 0.6537	5.42
x2 = 0.7004	5.62
x2 = 0.7461	5.81
x2 = 0.7906	5.98
x2 = 0.8342	6.15
x2 = 0.8769	6.32
x2 = 0.9189	6.48
x2 = 0.9599	6.64
